# Measured values from paper PMC4336329 (PLoS ONE, 2015).
# Screen size: about 310,000 compounds; about 2,200 (0.71%) showed an effect of 50% or more. The effect is printed as a negative number. Some of the results follow.
# Target: human ether-à-go-go-related gene (hERG) potassium channel (human, UniProt Q12809)
# Experiment: primary screen, population patch clamp on CHO cells stably expressing hERG
# human ether-à-go-go-related gene (hERG) potassium channel, sequence (Q12809 whole entry, looked up): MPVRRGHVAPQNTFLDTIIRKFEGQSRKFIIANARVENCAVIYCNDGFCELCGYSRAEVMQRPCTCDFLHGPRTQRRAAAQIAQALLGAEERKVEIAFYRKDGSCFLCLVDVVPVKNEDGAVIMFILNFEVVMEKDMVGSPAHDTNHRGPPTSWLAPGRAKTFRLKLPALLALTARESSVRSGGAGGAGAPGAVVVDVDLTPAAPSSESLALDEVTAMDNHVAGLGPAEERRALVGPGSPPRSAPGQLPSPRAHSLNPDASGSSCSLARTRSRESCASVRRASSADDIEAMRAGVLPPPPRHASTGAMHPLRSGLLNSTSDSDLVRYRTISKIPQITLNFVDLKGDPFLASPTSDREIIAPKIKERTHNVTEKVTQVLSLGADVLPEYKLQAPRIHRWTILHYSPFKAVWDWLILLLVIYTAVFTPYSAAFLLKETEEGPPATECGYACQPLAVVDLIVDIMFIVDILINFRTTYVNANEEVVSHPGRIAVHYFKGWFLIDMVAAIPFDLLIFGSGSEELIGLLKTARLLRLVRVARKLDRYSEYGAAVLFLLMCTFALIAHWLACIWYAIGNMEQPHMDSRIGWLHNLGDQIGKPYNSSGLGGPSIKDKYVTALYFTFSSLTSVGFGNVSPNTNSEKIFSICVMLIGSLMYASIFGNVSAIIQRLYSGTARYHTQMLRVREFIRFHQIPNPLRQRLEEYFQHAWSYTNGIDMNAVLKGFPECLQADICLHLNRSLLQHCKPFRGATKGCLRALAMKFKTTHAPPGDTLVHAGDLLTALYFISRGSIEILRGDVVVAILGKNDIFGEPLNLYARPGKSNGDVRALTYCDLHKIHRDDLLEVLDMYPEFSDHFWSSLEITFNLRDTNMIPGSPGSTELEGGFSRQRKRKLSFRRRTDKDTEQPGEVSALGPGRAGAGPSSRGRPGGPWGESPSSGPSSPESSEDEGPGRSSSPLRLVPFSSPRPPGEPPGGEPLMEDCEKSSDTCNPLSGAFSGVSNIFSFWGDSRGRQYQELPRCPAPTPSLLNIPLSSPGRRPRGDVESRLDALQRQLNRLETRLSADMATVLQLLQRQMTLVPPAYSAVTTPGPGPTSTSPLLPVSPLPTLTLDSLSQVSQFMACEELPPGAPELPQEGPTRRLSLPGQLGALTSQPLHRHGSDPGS
row,Structure (SMILES),"hERG current change (%, negative = inhibition) at 1uM"
1,CC(C)C(C(=O)NCC1CCCO1)N(C(=O)CNS(=O)(=O)c1ccccc1)c1ccc(F)cc1 (stereo not drawn),13.7%
2,CCN(CC)S(=O)(=O)c1cccc(C(=O)OCC(=O)Nc2ccccc2OC(F)F)c1,4.6%
3,O=C(c1ccccc1Oc1ccc([N+](=O)[O-])cc1)N1CCOCC1,-4.32%
4,COc1ccc(S(=O)(=O)Nc2cc3c4c(c2)CCC(=O)N4CCC3)cc1,-3.7%
5,CSCC(=O)NC1CCCc2c1cnn2-c1cc(F)cc(F)c1 (stereo not drawn),8.16%
6,CC(C)(C)c1ccc(-n2ncc3c2CCCC3NC(=O)CN2CCCCC2=O)cc1 (stereo not drawn),20.1%
7,O=C(O)c1ccc(C(=O)Nc2cccc3ccccc23)c(C(=O)O)c1,12.5%
8,CC(Sc1ccc(S(=O)(=O)N2CCN(C)CC2)cn1)C(=O)NC1CCCCC1 (stereo not drawn),5.07%
9,Cc1noc(C)c1CSCC(=O)Nc1ccc(Br)cc1Cl,-11.6%
10,Cc1cccc(NC(=O)c2onc3c2CCCC3)c1C,8.78%
11,CCOP(=S)(OCC)SCC(=O)NC(C(=O)O)C(C)C (stereo not drawn),9.01%
12,O=C(Nc1ccc2c(c1)OCCO2)c1cncc(Br)c1,6.64%
13,O=C(Oc1ccccc1)N1CCCC1,14.4%
14,CCOc1ccc(Nc2nc(NCC3CCCO3)c3ccccc3n2)cc1.Cl (stereo not drawn),-19%
15,CCOC(=O)c1c(CN2CCN(C)CC2)n(C)c2cc(Br)c(OC)cc12,-12.4%
16,O=C(COC(=O)CCSc1ccc(Cl)cc1)NCc1ccccc1Cl,-0.039%
17,CN1CCC(=NNC(=O)C(=O)Nc2cccc(Br)c2)CC1,11.5%
18,Cc1ccc(NC(=O)c2ccc(=O)n(CC(=O)Nc3c(C)cc(C)cc3C)n2)cc1,-0.321%
19,O=C(CSc1nc(C(F)(F)F)cc(=O)[nH]1)N1CCOCC1,10.6%
20,Cc1ccc2c(Cl)cc(Cl)c(OCC(=O)NC(C)(C)C)c2n1,10.8%
21,O=C(Nc1cccnc1)c1sc(Nc2ccccc2)nc1-c1ccccc1,9.25%
22,C=C(c1ccc(O)cc1)c1ccc(O)cc1,-0.0175%
23,CC(C)CC(=O)Nc1ccc(OCC(=O)O)cc1,2.73%

row,Structure (SMILES),"hERG current change (%, negative = inhibition) at 1uM"
1,CC(NCc1ccc(OCC(N)=O)cc1)C12CC3CC(CC(C3)C1)C2.Cl (stereo not drawn),9.06%
2,N#CCCn1cc(C(=O)Nc2ccc(F)cc2)c(-c2ccc([N+](=O)[O-])cc2)n1,6.48%
3,O=C1C2CCCCC2C(=O)N1c1ccc(NC2CCN(Cc3ccccc3)CC2)c([N+](=O)[O-])c1 (stereo not drawn),-0.582%
4,CCSc1oc(-c2ccccc2)nc1S(=O)(=O)c1ccccc1,8.1%
5,Fc1cccc(CCNCc2ccccn2)c1,11.3%
6,O=C(N=Nc1c(O)[nH]c2ccccc12)c1cccc(S(=O)(=O)N2CCCCC2)c1,5.9%
7,COc1ccc(C2CC(C(F)(F)F)n3ncc(C(=O)Nc4c(C)n(C)n(-c5ccccc5)c4=O)c3N2)cc1 (stereo not drawn),14.4%
8,COc1ccccc1/C=N/N=C(/N)N[N+](=O)[O-],6.95%
9,COc1ccc(S(N)(=O)=O)cc1N(C)S(=O)(=O)c1ccccc1,16.1%
10,CC(=O)c1cccc(NC(=O)CN(Cc2ccccc2)S(C)(=O)=O)c1,6.95%
11,O=C(Nc1ccc(C(=O)O)cc1)/C(=C\c1ccco1)NC(=O)c1ccccc1,13.9%
12,CCOc1ccc(S(=O)(=O)N(CC(=O)N/N=C/c2cccs2)c2ccc(C)cc2)cc1,0.735%
13,Cn1c(=O)c2ncn(CC(=O)N/N=C/c3ccco3)c2n(C)c1=O,10.7%
14,O=C(O)c1cccc2c1C(=O)c1cc(Br)ccc1S2(=O)=O,13%
15,O=C(c1ccc(Cl)cc1)c1ccc(CN2C(=O)c3ccccc3C2=O)o1,9.77%
16,COc1ccc2ccccc2c1CNC(=O)CC1C(=O)NCCN1CC(C)C (stereo not drawn),-4.95%
17,CCOC(=O)C1CCN(c2ccc(Cl)nn2)CC1,0.0696%
18,COc1ccc(Nc2cc(C)nc(N)n2)cc1,10.4%
19,CC1CCN(CCn2c(=S)[nH]c3ccccc3c2=O)CC1,1.9%
20,COc1ccc(C(=O)NC2CCN(C(=S)Nc3cc(C)cc(C)c3)CC2)cc1,11.8%
21,O=C(O)CSc1ccccn1,15.3%
22,Cc1ccc(C)n1-c1nnc(N2CCC(C(=O)NCCCN3CC(C)CC(C)C3)CC2)s1 (stereo not drawn),-3.35%
23,CC(NC(=O)c1ccco1)C(=O)N1CCN(c2cccc(C(F)(F)F)c2)CC1 (stereo not drawn),6.52%

row,Structure (SMILES),"hERG current change (%, negative = inhibition) at 1uM"
1,COc1ccc(C(=O)O)cc1S(=O)(=O)NCCN(C)C,6.05%
2,C=CCNC(=O)c1cc(-c2ccc(Br)cc2)on1,-4.93%
3,O=c1c(O)c(-c2ccc3c(c2)OCO3)oc2ccccc12,2.62%
4,CCCCN(CCCC)CCCNC(=O)CN1C(=O)COc2ccc(S(=O)(=O)N3CCC(C)CC3)cc21,-19.8%
5,CN(Cc1cn(-c2ccccc2)nc1-c1ccc(Cl)cc1)C(=O)CCC(=O)O,7.26%
6,Cc1ccccc1N1C(=O)c2cccc3c(N(C)CCO)ccc(c23)C1=O,-18.5%
7,O=C(CNS(=O)(=O)c1ccc(F)cc1)N1CCOCC1,13.6%
8,Cc1cc(C)c(NC(=O)COC(=O)C2CCN(c3ccc(C(F)(F)F)cn3)CC2)c(Cl)c1,7.15%
9,COc1ccc(NC2CCCN(C(=O)c3cccc(C)n3)C2)cc1OC (stereo not drawn),11.1%
10,CCCN1C(=O)/C(=C/c2ccc(OCc3ccc(C(=O)O)cc3)c(OC)c2)NC1=S,11.9%
11,COc1ccc(O)c(-c2cc(-c3cccs3)[nH]n2)c1,4.98%
12,CCN(CC)CCCN(Cc1cc2cc3c(cc2[nH]c1=O)OCO3)C(=S)Nc1ccc(OC)cc1,0.996%
13,C(=C\c1ccccn1)/c1ccccn1,9.49%
14,CCOC(=O)C1CCN(C(=O)CN2C(=O)C(CC)Oc3ccccc32)CC1 (stereo not drawn),5.67%
15,COc1ccc(C(=O)Nc2ccnn2C2CCN(Cc3ccn[nH]3)CC2)cc1,9.17%
16,Cc1ccc(NC(=O)CCNC(=O)c2ccccc2Cl)nc1,10.5%
17,Cc1c(C(=O)NCCN2CCOCC2)sc2nc(-c3ccc(F)cc3)cn12,-1.49%
18,O=C(CSc1nnc(NC(=O)C2CCC2)s1)NC1CC1,11.3%
19,COC(=O)CN1C(=O)[C@H]2[C@@H](/C=C/c3ccccc3)N3C(=O)CN(Cc4ccccc4)C(=O)[C@@]3(C)[C@H]2C1=O,-2.29%
20,CCSc1ccc(-c2nn(-c3ccccc3)cc2/C=C(/C#N)C(=O)NC)cc1,7.23%
21,CCN(CC)c1ccc(N2C(=O)c3ccccc3C2=O)cc1,1.78%
22,Cc1cc(C)n(CCNC(=O)CCc2nnc(CCc3ccccc3)o2)n1,12.1%
23,CC(C)(C)NC(=O)CSc1nnc(-c2ccccn2)n1-c1ccccc1,12.5%

row,Structure (SMILES),"hERG current change (%, negative = inhibition) at 1uM"
1,COc1ccccc1NC(=O)C(=O)c1cn(CC(=O)N2CCCC2)c2ccccc12,10.1%
2,CC(C)NC(=O)C(=O)NCCCOC(C)C,10.3%
3,O=c1c2ccccc2ncn1-c1ccc(Cl)cc1[N+](=O)[O-],-0.835%
4,Cc1nc(NC(=O)c2ccccc2)sc1-c1csc(NCCc2ccccc2)n1,8.09%
5,CCCOc1ccc(-c2c(C(=O)N/N=C/C3CCCCC3)nnn2-c2nonc2N)cc1,11.7%
6,O=C(Oc1coc(CSc2ncccn2)cc1=O)c1cccc([N+](=O)[O-])c1,-26.4%
7,COc1ccc2c(=O)c(C(=O)NCc3ccccc3)c[nH]c2c1,13.3%
8,CCOc1cc(NC(=S)NCCCOC)c(OCC)cc1NC(=O)c1ccco1,9.6%
9,COc1ccc(CNC(=O)Cn2cc3c(n2)CCCCC3)cc1,5.98%
10,O=C(Cc1ccccc1)Nc1ccc(NC(=O)C2CCCCC2)nc1,-9.25%
11,Cc1cccc(N2C(=O)C(Cc3ccccc3)NC2=S)c1 (stereo not drawn),2.4%
12,O=C(O)c1cc(S(=O)(=O)N2CCOCC2)c[nH]1,3.31%
13,O=C(O)C1CCC(CNS(=O)(=O)c2ccc(Br)cc2)CC1 (stereo not drawn),12.8%
14,COC(CNC(=S)Nc1ccc([N+](=O)[O-])cc1)OC,7.2%
15,COc1ccc(Cc2noc(-c3ccc(OC)c(OC)c3)n2)cc1OC,2.98%
16,O=C(CSc1nnc(-c2ccncc2)o1)Nc1cccc(F)c1,8%
17,COc1ccc(Cl)cc1NC(=S)N1CCN(C(=O)c2ccco2)CC1,6.99%
18,O=C(NCC(c1ccco1)N1CCOCC1)c1ccc(F)c(F)c1 (stereo not drawn),5.36%
19,O=C(NC(=S)Nc1cccc2cccnc12)c1ccccc1,14.9%
20,CCN(CC)S(=O)(=O)c1ccc(-c2nnc(SCC(=O)Nc3nnc(C)s3)n2CC)cc1,14%
21,O=C1c2ccccc2C(=O)C1c1ccc(Cl)cc1,1.34%
